Laboratory results reported in the RNAGym collection of RNA variant scans (doi:10.1073/pnas.2313332121).
Variants at the floor of the assay are shown more often than the library holds them.

B1: TPR 5TU (parent)
chain: GGAUCUUCUCGAUCUAACAAAAAAGACAAAUCUGCCACAAAGCUUGAGAGCAUCUUCGGAUGCAGAGGCGGCAGCCUUCGGUGGCGCGAUAGCGCCAACGUUCUCAACUAUGACACGCAAAACGCGUGCUCCGUUGAAUGGAGUUUAUCAUG

Variants of: B1
Test: polymerase ribozyme fitness, log enrichment relative to wild type (log ratio); higher = more active; in vitro selection for triplet polymerase activity
Method in brief: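 Each subunit of a heterodimeric triplet polymerase ribozyme was mutagenized into a library by PCR, transcribed, and subjected to one round of in vitro selection, run in triplicate. Libraries were annealed with a biotinylated primer, the partner subunit and triplets, incubated frozen at −7 °C, and extended constructs were gel-excised, captured on streptavidin beads and recovered by RT-PCR. Input and output libraries were sequenced on Illumina, keeping genotypes with ≥10 input reads and ≥1 read per output. Fitness is log base 2 of genotype enrichment divided by wild-type enrichment, from inverse-variance-weighted replicate averages.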

Row | Variant | polymerase ribozyme fitness (log ratio)
1 | U44A A52G U55A A66C C76G G84U U130G | ≤ -4.2
2 | G42A U53G C72U C95U A107U C132A | ≤ -4.2
3 | A41U C69A C103G A150G | ≤ -4.2
4 | A41C G59C U82C G86C C108G G141U | ≤ -4.2
5 | A41C U56A C79A C96A C131G | ≤ -4.2
6 | C43U G88C C116A G143A | ≤ -4.2
7 | A41U A89G A91C U101A | ≤ -4.2
8 | C43U A52C A91C C96G U127C | ≤ -4.2
9 | G42U A60G C72U C93U | ≤ -4.2
10 | C43A A47C G68A G84U A122C | ≤ -4.2
11 | A41U G68A C76U G117U | ≤ -4.2
12 | C43G A47C U55C C85A G86A U102A G152C | ≤ -4.2
13 | A41U G50A C75G C132A | ≤ -4.2
14 | C43A U139A G140U U145A | ≤ -4.2
15 | C43G A73C G86A C93G C96A | ≤ -4.2
16 | C43A C75U C76G C85U A113U C131G A138C | ≤ -4.2
17 | G42U G65A C95U U139G | ≤ -4.2
18 | G42C U55A G70A U82C U90C C95U C108A U109C | ≤ -4.2
19 | G42A U55A G59C | ≤ -4.2
20 | C43U U44G U45A C69U C85G G141A | ≤ -4.2
21 | A41C G48C C57U G84A | -2

Row | Variant | polymerase ribozyme fitness (log ratio)
22 | G42A G141C | ≤ -4.2
23 | G42C C57U A73G | ≤ -4.2
24 | A41C U56A C57U C87A A98U G124C C149A | ≤ -4.2
25 | A41C G50C U55A C85G | ≤ -4.2
26 | G42C U90C U109A | ≤ -4.2
27 | C43U C85U | ≤ -4.2
28 | C43U A52U U55G C79A G140C | ≤ -4.2
29 | U44A C76G A106C A110G U135C | ≤ -4.2
30 | C43U A73G C76U C87G | ≤ -4.2
31 | A41G A52G U78A | ≤ -4.2
32 | A41U A52G U102G U145C | ≤ -4.2
33 | C43U G68A G86U | ≤ -4.2
34 | C43G U53A G68A C75A C93A U104A | ≤ -4.2
35 | C43U C87G A137G | ≤ -4.2
36 | A41U G48A G83C U111C | ≤ -4.2
37 | A41G C43A G62C C63A A66G C85A A107C C116A C125G | ≤ -4.2
38 | U44A C57A G128A U139A | ≤ -4.2
39 | G42C U78G C85U C99G A121U C132G U139C | ≤ -4.2
40 | C43U G86U G94C C103A C108G C123A U127A | ≤ -4.2
41 | G42C U77A C87U U102G | ≤ -4.2
42 | G42C C79G G81A C85A G112A A138G U146A | ≤ -4.2

Row | Variant | polymerase ribozyme fitness (log ratio)
43 | G42A U77A C79G G84C G133C G141U U146G U148A | ≤ -4.2
44 | G42C C79G G124C | ≤ -4.2
45 | G42U A47U U56G G59U G68C C125A | ≤ -4.2
46 | C43U G124U | ≤ -4.2
47 | A41C U53G | -3.43
48 | A41U A52C A98U | -2.65
49 | G42U C63A A64C C95A U146A C149A | ≤ -4.2
50 | G42C G50C C85U C96U C116U | ≤ -4.2
51 | A41G A49C U82G U90G G133A | ≤ -4.2
52 | A41U C75G | ≤ -4.2
53 | G42A C116G | -3.99
54 | G42C C54G A66G C75G G92A C105G C108U U130G G140U | ≤ -4.2
55 | G42A G86A A89C C123U U134C A147G | ≤ -4.2
56 | U44A C51U G62C C87G U104G C105G A106U A122C | ≤ -4.2
57 | G42A A52G G83U G86A G136U | ≤ -4.2
58 | A41U A120G G143A | -2.06
59 | G42U C95U C99U U104G | ≤ -4.2
60 | G42C A60U G67C G128U A138U | ≤ -4.2
61 | C43U G70A C93A C116U A119G G140U | ≤ -4.2
62 | U44A A52C C54A G92A G141C | ≤ -4.2
63 | G42A A49G A64G A107U C114U | ≤ -4.2

Row | Variant | polymerase ribozyme fitness (log ratio)
64 | G42C G74C U77C U135C | ≤ -4.2
65 | A41U U61A G84U C103U C116U G141C | ≤ -4.2
66 | A41G U146G | -0.0573
67 | C43U G67U G71C U148C A150U | ≤ -4.2
68 | A41U C54A C79U G88C U148C | ≤ -4.2
69 | G42C A60G C76A C96U | ≤ -4.2
70 | C43U A89U A91C A97G | ≤ -4.2
71 | U44A A60G G83A C105G G128U A137G | ≤ -4.2
72 | U44A G48C C87A A115U C125A | ≤ -4.2
73 | U44A A66G G68C | ≤ -4.2
74 | G42U U56A C75G A91U G126A U144A | ≤ -4.2
75 | C43A A73G C87G C125G C132A G141C C149A | ≤ -4.2
76 | C43U G58U C93U | ≤ -4.2
77 | G42A G88C | ≤ -4.2
78 | G42C G117A | ≤ -4.2
79 | C43U U44A A106C C116A C131A | ≤ -4.2
80 | C43G C69A | ≤ -4.2
81 | C43U A64C A97G C105U C108A | ≤ -4.2
82 | A41G G42C A64U G88U U102G | ≤ -4.2
83 | A41G G65A G143U | -3.42
